In the antibiotic and cytotoxicity screens of Wong et al. (2023):
This is one part of the list.

Key:
HSkMC = human skeletal muscle cells; assay: cytotoxicity call (relative viability < 0.9); conditions: 10 µM
HepG2 = assay: cytotoxicity call (relative viability < 0.9); conditions: 10 µM
S. aureus RN4220 = assay: growth inhibition call (relative growth <= 0.2); conditions: 50 µM

Compound	cytotoxicity call (HSkMC)	cytotoxicity call (HepG2)	growth inhibition call (S. aureus RN4220)
C=C[C@H]1[C@H](O[C@H]2O[C@@H](CO)[C@@H](O)[C@@H](O)[C@@H]2O)OC=C(C(=O)OC)[C@H]1CCOC(=O)c1cc(O)c(O)c(O)c1	inactive	inactive	inactive
C[C@@H]1CN([C@H](C)CO)C(=O)Cc2cc(NC(=O)NC3CCCCC3)ccc2O[C@H]1CN(C)Cc1ccc(Oc2ccccc2)cc1	inactive	inactive	inactive
C[C@H](CO)N1C[C@H](C)[C@H](CN(C)Cc2ccc(Cl)c(Cl)c2)Oc2ccc(NC(=O)NC3CCCCC3)cc2CC1=O	inactive	inactive	inactive
C[C@@H]1CCCCO[C@H](CN(C)Cc2ccc(C(F)(F)F)cc2)[C@@H](C)CN([C@H](C)CO)C(=O)c2cc(NC(=O)Nc3ccc4c(c3)OCO4)ccc2O1	inactive	active	inactive
C[C@H]1CN([C@@H](C)CO)C(=O)c2cc(C#CCc3ccccc3)cnc2O[C@@H]1CN(C)C(=O)Cc1cccnc1	inactive	inactive	inactive
O=C(C[C@H]1C[C@H]2c3cc(NS(=O)(=O)c4ccc(F)cc4)ccc3O[C@H]2[C@@H](CO)O1)NCc1ccccn1	inactive	inactive	inactive
C[C@@H]1CN([C@@H](C)CO)C(=O)c2c(c3ccccc3n2C)-c2ccccc2CO[C@@H]1CN(C)C(=O)Nc1cccc(Cl)c1Cl	inactive	inactive	inactive
COCC#Cc1cnc2c(c1)C(=O)N([C@H](C)CO)C[C@@H](C)[C@H](CN(C)C(=O)Nc1ccccc1OC)O2	inactive	inactive	inactive
C[C@H](CO)N1C[C@H](C)[C@H](CN(C)C(=O)c2cccc(F)c2)Oc2cc(-c3cncnc3)ccc2S1(=O)=O	inactive	inactive	inactive
C[C@@H]1CN([C@H](C)CO)C(=O)c2ccccc2-c2ccccc2CO[C@@H]1CN(C)C(=O)Nc1cccc(F)c1	inactive	inactive	inactive
C[C@@H]1CCCCO[C@@H](CN(C)C(=O)Nc2ccc(C(F)(F)F)cc2)[C@@H](C)CN([C@H](C)CO)C(=O)c2cc(NC(=O)Nc3ccc(C(F)(F)F)cc3)ccc2O1	inactive	inactive	inactive
Cc1ccc(S(=O)(=O)N(C)C[C@H]2Oc3c(NC(=O)c4ccncc4)cccc3C(=O)N([C@H](C)CO)C[C@H]2C)cc1	inactive	inactive	inactive
C[C@@H]1CN([C@@H](C)CO)C(=O)c2cc(NC(=O)Nc3ccccc3)ccc2O[C@@H](C)CCCCO[C@H]1CN(C)Cc1ccc(Cl)c(Cl)c1	inactive	inactive	inactive
O=C(O)Cn1nnc(-c2ccccc2)n1	inactive	inactive	inactive
C[C@@H]1CN([C@H](C)CO)C(=O)c2cc(NS(=O)(=O)c3ccc(F)cc3)ccc2O[C@@H](C)CCCCO[C@@H]1CN(C)C(=O)C1CCCCC1	inactive	inactive	inactive
CC(C)(C)[S@@](=O)N1Cc2cc(C(=O)N[C@H]3CCN(Cc4ccccc4)C3)nc(-c3cccc(-c4cccnc4)c3)c2[C@H]1CCO	inactive	inactive	inactive
COc1ccc(NC(=O)Nc2ccc3c(c2)C(=O)N([C@H](C)CO)C[C@@H](C)[C@@H](CN(C)Cc2ccc(C(=O)Nc4ccccc4N)cc2)O3)cc1	inactive	inactive	inactive
C[C@@H]1CN([C@H](C)CO)C(=O)c2cc(NC(=O)NC3CCCCC3)ccc2O[C@@H](C)CCCCO[C@@H]1CN(C)C(=O)NC1CCCCC1	inactive	inactive	inactive
C[C@@H]1CCCCO[C@@H](CN(C)C(=O)Nc2ccc(C(F)(F)F)cc2)[C@H](C)CN([C@@H](C)CO)C(=O)c2cc(NS(=O)(=O)c3ccccc3)ccc2O1	inactive	inactive	inactive
C[C@H](CO)N1C[C@H](C)[C@H](CN(C)Cc2ccc(Oc3ccccc3)cc2)Oc2c(NC(=O)Nc3ccc4c(c3)OCO4)cccc2C1=O	inactive	active	inactive
C[C@@H]1CCCCO[C@H](CN(C)Cc2ccc(C(=O)O)cc2)[C@H](C)CN([C@@H](C)CO)C(=O)c2cc(NS(=O)(=O)c3ccccc3)ccc2O1	inactive	inactive	inactive
C[C@@H]1CN([C@H](C)CO)C(=O)c2cc(-c3cccnc3)cnc2O[C@H]1CN(C)Cc1ccc(-c2ccccc2)cc1	inactive	inactive	inactive
C[C@@H]1CCCCO[C@H](CN(C)CC2CCCCC2)[C@H](C)CN([C@H](C)CO)C(=O)c2cc(NC(=O)Nc3ccccc3)ccc2O1	inactive	active	inactive
O=C(C[C@@H]1C=C[C@@H](NC(=O)c2ccncc2)[C@@H](CO)O1)NCc1ccncn1	inactive	inactive	inactive
COCc1nnc2n1CCN(C(=O)c1ccn[nH]1)C2	inactive	inactive	inactive
COc1cccc(S(=O)(=O)Nc2ccc3c(c2)OC[C@@H](C)N(C(=O)Cc2cccnc2)C[C@H](C)[C@@H](OC)CN(C)C3=O)c1	inactive	inactive	inactive
CCn1ncc(NC(=O)Cn2ccc(C(=O)OC)n2)n1	inactive	inactive	inactive

Compound	cytotoxicity call (HSkMC)	cytotoxicity call (HepG2)	growth inhibition call (S. aureus RN4220)
O=C(C[C@@H]1CC[C@@H]2[C@H](COC[C@@H](O)CN2Cc2ccccc2F)O1)N[C@@H]1CCN(Cc2ccccc2)C1	inactive	inactive	inactive
CN(C)CCN1CCN(C)C2(CCN(S(=O)(=O)C3CC3)CC2)C1=O	inactive	inactive	inactive
COc1ccccc1C#Cc1cnc2c(c1)C(=O)N([C@@H](C)CO)C[C@@H](C)[C@@H](CN(C)C(=O)c1ccc3c(c1)OCO3)O2	inactive	inactive	inactive
C[C@@H]1CCCCO[C@H](CN(C)Cc2ccc(C(F)(F)F)cc2)[C@@H](C)CN([C@H](C)CO)C(=O)c2cc(NC(=O)C3CCCCC3)ccc2O1	inactive	active	inactive
C[C@@H]1CN([C@H](C)CO)C(=O)c2c(c3ccccc3n2C)-c2ccccc2CO[C@@H]1CN(C)C(=O)c1cc(Cl)cc(Cl)c1	inactive	inactive	inactive
CCSc1nc(-c2ccc(C)cc2)cc(C(F)(F)F)c1C#N	inactive	inactive	inactive
C[C@H](CO)N1C[C@H](C)[C@@H](CN(C)C(=O)Nc2ccc(N3CCN(C)CC3)cc2)OCc2cn(nn2)CCCC1=O	inactive	inactive	inactive
CNC[C@@H]1Oc2ccc(NC(=O)CCN3CCOCC3)cc2CC(=O)N([C@@H](C)CO)C[C@@H]1C	inactive	inactive	inactive
C[C@@H]1CCCCO[C@@H](CN(C)S(=O)(=O)c2ccc(F)cc2)[C@H](C)CN([C@@H](C)CO)C(=O)c2cc(NC(=O)NC3CCCCC3)ccc2O1	inactive	inactive	inactive
C[C@@H]1CCCCO[C@@H](CN(C)C(=O)NC2CCCCC2)[C@H](C)CN([C@H](C)CO)C(=O)c2cc(NC(=O)Nc3ccc(F)cc3)ccc2O1	inactive	inactive	inactive
Cc1ccc(S(=O)(=O)N(C)C[C@@H]2Oc3ccc(NS(=O)(=O)c4c(C)noc4C)cc3C(=O)N([C@@H](C)CO)C[C@H]2C)cc1	inactive	inactive	inactive
C[C@H](CO)N1C[C@H](C)[C@H](CN(C)CC2CCCCC2)Oc2ccc(NC(=O)CCCCCC(=O)Nc3ccccc3N)cc2CC1=O	inactive	inactive	inactive
C[C@H]1CCCCO[C@@H](CN(C)C(=O)NC2CCCCC2)[C@@H](C)CN([C@@H](C)CO)C(=O)c2cc(NS(=O)(=O)c3ccccc3)ccc2O1	inactive	inactive	inactive
C[C@@H]1CCCCO[C@@H](CN(C)Cc2ccc3c(c2)OCO3)[C@@H](C)CN([C@H](C)CO)C(=O)c2cc(NS(=O)(=O)c3cccs3)ccc2O1	inactive	inactive	inactive
COc1cc2nccc(Oc3ccc(NC(=O)c4cn(C(C)C)c(=O)n(-c5ccc(F)cc5)c4=O)cc3F)c2cc1OC	active	active	inactive
NCc1ccc(Br)s1	inactive	inactive	inactive
Cc1noc(C)c1S(=O)(=O)Nc1ccc2c(c1)C(=O)N([C@@H](C)CO)C[C@H](C)[C@H](CN(C)C(=O)NC1CCCCC1)O2	inactive	inactive	inactive
CC(C)(C)OC(=O)C[C@H]1CC=CC[C@H](CC(=O)N[C@@H](CO)Cc2ccccc2)C(=O)N2CCC[C@@H]2COC1=O	inactive	inactive	inactive
C[C@@H]1CN([C@H](C)CO)C(=O)Cc2cc(NC(=O)c3ccncc3)ccc2O[C@@H]1CN(C)S(C)(=O)=O	inactive	inactive	inactive
C[C@H]1CN([C@@H](C)CO)S(=O)(=O)c2ccc(C#Cc3ccccc3)cc2O[C@@H]1CN(C)S(=O)(=O)c1cn(C)cn1	inactive	inactive	inactive
C[C@H](CO)N1C[C@H](C)[C@@H](CN(C)S(C)(=O)=O)Oc2ccc(NS(=O)(=O)c3cccs3)cc2CC1=O	inactive	inactive	inactive
C[C@@H]1CCCCO[C@H](CN(C)C(=O)Nc2ccccc2)[C@@H](C)CN([C@H](C)CO)C(=O)c2cc(NC(=O)C3CCCCC3)ccc2O1	inactive	inactive	inactive
Nc1nnnn1/N=C/c1ccco1	inactive	inactive	inactive
C[C@H](CO)N1C[C@H](C)[C@H](CN(C)CC2CCCCC2)Oc2c(NC(=O)Nc3ccccc3)cccc2C1=O	inactive	inactive	inactive
COc1ccc([C@H]([C@H](Cc2ccccc2)OC(C)=O)N(C/C=C/[C@@H](OC(C)=O)c2ccccc2)[C@@H](Cc2ccccc2)C(OC)OC)cc1	inactive	active	inactive
COCCNC(=O)C[C@@H]1C[C@@H]2c3cc(NC(=O)COC)ccc3O[C@@H]2[C@H](CO)O1	inactive	inactive	inactive
C[C@H](CO)N1C[C@H](C)[C@@H](CN(C)C(=O)Nc2ccc3c(c2)OCO3)Oc2c(NC(=O)C3CC3)cccc2C1=O	inactive	inactive	inactive
